For this test, the system named is PAO1 cells. The test can be described thus: Killing assay of GN4-derived peptides in Tris-HCl buffer. Conditions: peptide 10 mcg/ml, 1 hour, 20 mM Tris-HCl pH 7.2; compared with other peptides or buffer. As for the experimental part:
A single C-terminal cysteine was added to FGN4-1 (SEQ ID NO: 7) to generate FGN4-4 (SEQ ID NO: 10). For the 3 additional peptides, the 11 C-terminal residues of FGN4-1 were either removed (FGN4-2, (SEQ ID NO: 8)) or removed and replaced with either a single lysine (K) residue (FGN4-3, (SEQ ID NO: 9)) or an 8-residue antibacterial peptide identified from the hepatitis B capsid (PGN4, (SEQ ID NO: 6)).

The source of these data is patent US11413334B2, “Lysin polypeptides active against Gram-negative bacteria” (CONTRAFECT CORPORATION, priority 2015, dated 2022).

For the substance “FGN4-3: FGN4-1 with 11 C-terminal residues replaced by a single lysine (NKGDYQGAADQFPRWVNAGGKRLDGLVKRRK; artificially-created modified fragment of GN4 (SEQ ID NO 3))”, the “antibacterial activity of GN4-derived peptides (viability assay, FIG. 6)” value is “greater antibacterial activity than the other GN4 peptides tested”.
